From ChEMBL document CHEMBL4888484, “Replenishing the malaria drug discovery pipeline: Screening and hit evaluation of the MMV Hit Generation Library 1 (HGL1) against asexual blood stage Plasmodium falciparum ,using a nano luciferase reporter read-out” (2022) come the findings set out here.

The campaign covered roughly 150,000 compounds. About 540 (0.36%) showed an effect of 50% or more. The list shows a part of the results.

The assay has as its system Plasmodium falciparum. Description: Primary screen in NF54 nanoGlo assay, in single point, at 2uM, 72h; a lower Z score goes with more inhibition. The settings on record: timepoint 72 hour. The format is functional, Erythrocyte.
Turning to `N#Cc1ccc(NCCNC(=O)NC2CCCC2)nc1`, the % Inhibition (usually the drop in the measured response relative to a control, in per cent) came out at 1% and the Z score was -0.2.
Taken in the same sequence, the figures for `CC(C)NC(=O)N[C@@H]1CC[C@H]2CCOc3ccccc3C(=O)N3CCN(C4CCCCC4)C[C@H]3C(=O)NC[C@H]1O2` were -11% and 2.03.
As for `O=C(Nc1ccccc1)c1nnc(C(=O)N2CCC(CC(=O)N3CCCCCC3)CC2)s1`, the “% Inhibition” value stood at 0% and the Z score amounted to 0.
Take `COc1ccc2c(c1)N(CC1=CCCOC1)C[C@H](C)O2`: the “% Inhibition” value is -12% and the Z score worked out at 1.91.
The like results for `Cn1ccnc1[C@@H](NC1CCOCC1)C1CC1` were, in that order, 1% and -0.25.
Turning to `COc1ccncc1NCc1ccc(C(=O)OC(C)(C)C)cc1`, the “% Inhibition” value is reported as 31% and the Z score is on record as -3.52.
Taken in the same sequence, the figures for `CCOC(=O)N1CCN(C(=O)c2ccc(NCc3ccc(OC)cc3)c(S(=O)(=O)Nc3cccc(C(F)(F)F)c3)c2)CC1` were -5% and 0.6.
As to `CCN1CCN(C(=O)Cn2c(-c3cccs3)cc3ccccc32)CC1`, the “% Inhibition” value turned out to be 8% and the Z score was -1.
For `CCn1c(CN[C@@H](C)c2ccc(Cl)cc2)nc2cc(S(=O)(=O)N3CCCCC3)ccc21`, the “% Inhibition” value is listed as 9% and the Z score is reported as -1.15.
The like results for `CCC1(CC)CCN(C(=O)N[C@H]2CCn3ccnc32)C1` were, in that order, 2% and -0.33.
As to `CN1CCCN(c2nc3ccccc3nc2NS(=O)(=O)c2ccccc2C(F)(F)F)CC1`, the “% Inhibition” value is -6% and the Z score is given as 0.89.
For `CC(C)[C@H](NC(=O)Nc1ccc2c(c1)OCO2)c1cccs1`, the “% Inhibition” value is recorded as -2% and the Z score is 0.36.
As for `CC1CCN(c2ncc(F)c(N)n2)CC1`, the “% Inhibition” value was 28% and the Z score is given as -3.22.
Taken in the same sequence, the figures for `CCc1ccc(-n2ncc(-c3cc(C(=O)NCc4ccccc4)c4ccccc4n3)c2C)cc1` were -9% and 1.15.
`O=C(C1CCCC1)N1CC(S(=O)(=O)N2CCC[C@H](n3cncn3)C2)C1`: the “% Inhibition” value is reported as -11% and the Z score is 1.41.
For the compound `Cc1cccc(N2C(=O)c3ccc(NC(=O)COc4ccccc4Cl)cc3C2=O)c1C`, the “% Inhibition” value was found to be 7% and the Z score is -0.97.
The like results for `Fc1ccc(CNc2ccc3nccnc3n2)c(F)c1` were, in that order, -3% and 0.61.
For `CCC1(CC)CCN(C(=O)c2cc3ncccn3n2)C1`, the “% Inhibition” value is listed as -12% and the Z score is listed as 1.53.
As for `CC[C@H]1C(=O)NCCN1C(=O)c1cc(C2CC2)on1`, the “% Inhibition” value was -9% and the Z score was 1.14.
Taken in the same sequence, the figures for `COc1ccccc1C(=O)Nc1ccc2c(c1)nc(CN1CCN(C)CC1)n2C(C)C` were -14% and 1.22.
Taken in the same sequence, the figures for `Cn1cc(CNC(=O)[C@@H]2CCCN(CC(F)(F)F)C2=O)nn1` were -18% and 1.98.
`O=S(=O)(c1ccccc1)N1CCN(Cc2nc3cc(Cl)ccc3o2)CC1`: the “% Inhibition” value was -14% and the Z score amounted to 1.2.
Regarding `CCN(CC)c1ccc(NS(=O)(=O)c2cc(C(=O)N3CCC(C)CC3)n(C)c2C)c(C)c1`, the “% Inhibition” value is -11% and the Z score is given as 2.23.
The like results for `NC(=O)c1ccc(-c2noc(CC3CCCC3)n2)cc1` were, in that order, -6% and 0.49.
Take `Cc1ccc(NS(=O)(=O)c2cc(N(C)S(=O)(=O)c3ccccc3)c(C)cc2C)c(C)c1`: the “% Inhibition” value was -1% and the Z score came out at 0.21.
Taken in the same sequence, the figures for `COc1ccc(Nc2nc(COC(=O)Cn3cnc4c3c(=O)n(C)c(=O)n4C)cs2)cc1` were -6% and 0.88.
On to `c1ccc(N2CC[C@H](CNc3nccn4cnnc34)C2)cc1`, for which the “% Inhibition” value is -7% and the Z score came to 0.8.
As for `Cc1c[nH]c(CN2CCNC(=O)C23CCCC3)n1`, the “% Inhibition” value was -8% and the Z score came out at 1.53.
As for `CN(C(=O)OC(C)(C)C)[C@H]1CCCC[C@@H]1O`, the “% Inhibition” value is given as -3% and the Z score was 0.28.
The like results for `Cc1cccc(N(C)S(=O)(=O)c2ccsc2-c2nc(-c3ccc(F)cc3)no2)c1` were, in that order, -14% and 1.96.
Regarding `O=C1C[C@H](c2cc(Cl)ccc2Cl)c2sc(N3CCCC3)nc2CN1`, the “% Inhibition” value is on record as -3% and the Z score stood at 0.58.
Taken in the same sequence, the figures for `CC(NC(=O)C1CCOC1)c1cn[nH]c1` (centres undefined) were -8% and 1.13.
The like results for `Cc1ccc(C)c(C(=O)N(C)Cc2snnc2C)c1` were, in that order, -4% and 0.55.
As to `O=C1c2ccccc2C(c2ccc(NC(=O)c3cccc4ccccc34)cc2)(c2ccc(NC(=O)c3cccc4ccccc34)cc2)c2ccccc21`, the “% Inhibition” value is given as 95% and the Z score is reported as -13.49.
`C[C@H](Nc1nc(-c2ccccn2)nc2c1CCC2)c1ccncc1`: the “% Inhibition” value is recorded as 8% and the Z score was -1.55.
With `Cc1cc(C)cc(N2CC[C@H](NC(=O)C3CCCCC3)C2=O)c1`, the “% Inhibition” value was -4% and the Z score was 0.66.
Regarding `Cc1nc(NCCc2cc[nH]n2)cc([C@H]2C[C@@H](O)C2)n1`, the “% Inhibition” value was -18% and the Z score is listed as 2.15.
As for `CC(C)c1nc(C(=O)N2CCn3nc(C#N)cc3C2)cs1`, the “% Inhibition” value is -5% and the Z score is 0.74.
The like results for `C[C@H]1c2ccccc2CN1C(=O)NCc1ncn(C)n1` were, in that order, 1% and -0.15.
The like results for `Cc1ccc(CC(=O)N2CC[C@@]3(CC(=O)c4ccccc4O3)C2)cn1` were, in that order, 3% and -0.43.
Take `CCCc1cc(C(=O)N(Cc2ccccc2)[C@H]2C[C@H]3CC[C@@H](C2)N3C)no1`: the “% Inhibition” value was -11% and the Z score came out at 1.17.
With `C[C@H](NS(=O)(=O)c1ccccc1C(F)(F)F)C(=O)NCc1ncccc1O`, the “% Inhibition” value was determined as 0% and the Z score is 0.02.
The like results for `COc1ccc(N2C(=O)CN(C(=O)COc3ccccc3OC)CC23CCCC3)cc1` were, in that order, -6% and 1.18.
Taken in the same sequence, the figures for `O=C(O)CCC1CCCN(C(=O)C2CCCO2)C1` (centres undefined) were -6% and 0.72.
Take `O=c1ccc(C2CC2)nn1Cc1c(Cl)oc2ccccc12`: the “% Inhibition” value was -3% and the Z score worked out at 0.44.
Taken in the same sequence, the figures for `CC(C)N(C)C(=O)NCC1CCN(CC#N)CC1` were -13% and 1.69.
Turning to `O=C(NC[C@H]1CCN1C1CCCCC1)NC1CCC(C(F)F)CC1` (some centres undefined), the “% Inhibition” value was 6% and the Z score is listed as -0.81.
Turning to `C[C@@H](C(=O)NCC(=O)Nc1cn[nH]c1)c1ccc(Cl)s1`, the “% Inhibition” value is given as -11% and the Z score is on record as 1.07.
Consider `C[C@@]1(C(=O)Nc2cccc(CN3CCNC(=O)C3)c2)CCc2ccccc21`, for which the “% Inhibition” value worked out at 27% and the Z score is -3.58.
Consider `Cc1ncnc(OCC2CCN(C(=O)CCC(F)(F)F)CC2)c1C`, for which the “% Inhibition” value is -10% and the Z score was determined as 1.13.
Regarding `Cc1cccc(CNC(=O)[C@@H]2CCN(c3ccccc3Cc3ccccc3)C2=O)c1`, the “% Inhibition” value is -4% and the Z score came to 0.44.
Turning to `NC1(c2nc(-c3nccs3)cs2)CCCC1`, the “% Inhibition” value is reported as -7% and the Z score is 0.63.
With `c1cn(Cc2noc(C3CCC3)n2)c(-c2cc3n(n2)CCCNC3)n1`, the “% Inhibition” value is listed as -4% and the Z score worked out at 0.56.
The like results for `CC(C)c1nnc(NC(=O)[C@@]2(C)CC2(Cl)Cl)s1` were, in that order, 4% and -0.38.
Taken in the same sequence, the figures for `C[C@H]1CCCCN1C(=O)CN1CCN(c2noc(C(C)(C)C)n2)CC1` were -1% and 0.18.
`CN(C[C@H]1COc2ccccc2O1)C1CCOCC1`: the “% Inhibition” value is 7% and the Z score is on record as -0.95.
Taken in the same sequence, the figures for `Cc1c(-c2nnc(C(=O)NCCc3ccccc3)o2)oc2ccccc12` were 3% and -0.37.
With `Cc1ccc(NCC(F)(F)C(F)F)cc1`, the “% Inhibition” value was -13% and the Z score is on record as 1.75.
Taken in the same sequence, the figures for `CC(c1ccc(Cl)cc1)C(C)N(C)S(=O)(=O)N(C)CCC#N` (centres undefined) were -12% and 1.17.
The like results for `O=C(c1ccc(O)c(Cl)c1)N1C[C@@H]2CC[C@H]1CN(C1CCOCC1)C2` were, in that order, -9% and 1.77.
The like results for `O=C(N[C@H]1CCO[C@@H]1c1cc[nH]n1)c1csc(C2CCCCC2)c1` were, in that order, -12% and 2.29.
Turning to `COc1cc(C(=O)NCc2cc(F)cc3c(C)c(C)[nH]c23)ccn1`, the “% Inhibition” value was -3% and the Z score was found to be 0.32.
Taken in the same sequence, the figures for `CN(CC(=O)NCc1cccnc1)C(=O)c1cc2n(n1)CCCN(Cc1ccc(F)cc1)C2=O` were -4% and 0.36.
Consider `CCC(CC)(CO)CN(C)C(=O)c1cc(F)cc(Cl)c1`, for which the “% Inhibition” value was -7% and the Z score is reported as 1.45.
For `Cc1cccc(C)c1OCCC(=O)N1CCCNC(=O)[C@@H]1C`, the “% Inhibition” value came to 1% and the Z score was -0.11.
For `CC(C)Oc1cccc(C(=O)NC2(c3ncon3)CCOCC2)n1`, the “% Inhibition” value is -9% and the Z score came to 1.41.
The like results for `CC(C)O/C(=N/C(=O)c1ccc(C(F)(F)F)cc1)N(CCc1ccccc1)Cc1ccccc1` were, in that order, -7% and 0.92.
Taken in the same sequence, the figures for `COC(=O)C1CC(O)CN1Cc1nccn1Cc1ccccc1` (centres undefined) were -11% and 1.35.
Taken in the same sequence, the figures for `Cc1nc(-c2scc3c2OCCO3)n(-c2ccccn2)n1` were -13% and 1.75.
In the case of `CN(C)c1ccccc1-c1cncc(C(N)=O)c1`, the “% Inhibition” value is reported as -6% and the Z score stood at 0.8.
Regarding `Cc1ccc(C)c(NC(=O)COC(=O)CCC(=O)Nc2cccc(C(=O)OCC(C)C)c2)c1`, the “% Inhibition” value is -6% and the Z score amounted to 0.71.
The like results for `CC(C)N1C[C@@H](C(=O)Nc2ccc3c(c2)OCCO3)CC1=O` were, in that order, -9% and 1.31.
`COc1ccc(C(=O)N2CCOC[C@H](Oc3ccc(C(F)(F)F)cn3)C2)cc1`: the “% Inhibition” value is 16% and the Z score is listed as -1.91.
Taken in the same sequence, the figures for `CC(NCC(C)N1CCN(C)CC1)c1nc2ccc(Cl)cc2n1C` (centres undefined) were 9% and -1.45.
The like results for `O=C(N[C@H]1CC[C@H](O)CC1)c1cncnc1C1CC1` were, in that order, -4% and 0.5.
As to `COc1cc(OC)c(CN(C)C[C@H]2CC(=O)N(C(C)(C)C)C2)cc1Cl`, the “% Inhibition” value stood at 14% and the Z score is -1.79.
Taken in the same sequence, the figures for `COc1ccc(CN2C[C@H]3CN(C)C[C@H]3C2)cc1OCc1ccccc1F` were 8% and -1.25.
The like results for `COc1ccc(-c2cc3c(N4CCN(c5cc(Cl)ccc5C)CC4)nccn3n2)cc1OC` were, in that order, -13% and 1.99.
The like results for `CC(C)N(Cc1nccn1C)C(=O)CCc1nnc(CCc2c[nH]c3ccccc23)o1` were, in that order, -5% and 0.99.
For `CN(CC1CCOCC1)S(=O)(=O)c1ccccc1`, the “% Inhibition” value was -10% and the Z score turned out to be 1.44.
Taken in the same sequence, the figures for `C[C@@H](CN(C)Cc1ccc(C2CCCCC2)s1)N1CCOCC1` were -2% and 0.37.
The like results for `COc1ccc(C(=O)N2CCC3(CC2)OC[C@@H](C(=O)NC(C)C)N3C(=O)c2ccccc2C)cc1OC` were, in that order, 5% and -0.57.
